Source: PubChem BioAssay AID686970 (National Center for Advancing Translational Sciences (NCATS), 2013)
Where “and” joins values, the source holds several entries; their conditions need not be identical. Equal values may be shown once. Screen size: about 360,000 compounds; about 6,000 (1.7%) were called active. Inconclusive results, whose numbers are uncertain, are shown with a selection of clear calls. The call rests on the fitted dose curve; in most records, active means well fitted cell-killing curve with a large enough effect; inconclusive means small, poorly fitted or top-dose-only effect, or effect the other way; inactive means flat fitted curve, though single readings scatter. Where the call is inconclusive, the potency comes from a doubtful curve fit.

Assay: qHTS for induction of synthetic lethality in tumor cells producing 2HG: qHTS for the HT-1080-NT fibrosarcoma cell line;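 further: NT is the 2HG producing partner of a matched IDH1 knockdown line; nearly all actives have a fitted effect of over 55% in size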;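 on activity, negative = less viability: 0% = DMSO-treated cells and -100% = media-only wells without cells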
Details: HT-1080-NT fibrosarcoma viability, CellTiter-Glo ATP luminescence, 48 h; activity, negative = less viability: at 46.1 µM (top of the series) unless noted
Summary of the method: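 Read-out is CellTiter-Glo luminescence after 10 minutes at room temperature, following 48 hours' compound treatment of HT-1080-NT cells (750 cells/well, RPMI, 5% FBS, 37 degrees C).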
Potency means the concentration at half of the fitted maximal effect; tags describe the fitted curve by direction and shape.

SMILES | Potency | activity, negative = less viability
NC(CCc1ccccc1)c1csc(Nc2cnccn2)n1 (centres undefined) | inconclusive: 9.2 µM [cytotoxic, partial curve] | 
CCOC(=O)c1c(-c2ccc(OC)cc2)oc2ccc(O)cc12 | inconclusive: 29.1 µM [cytotoxic, single point] | 
Cc1ccc(C(=O)N/C(=C\c2ccc(-c3ccc(Br)cc3)o2)C(=O)NCCCN(C)C)cc1 | inconclusive: 23.1 µM [cytotoxic, single point] | 
O=C(Nc1cccc(Cl)c1)c1ccc(OC(=S)N2CCOCC2)cc1 | inconclusive: 5.8 µM [cytotoxic, partial curve] | 
O=c1[nH]c(-[n+]2ccccc2)c(/C=N/NC([S-])=Nc2ccccc2)s1 | inconclusive: 20.6 µM [rising, single point] | 
O=C(N/N=C/c1cc(Br)c(O)c(Br)c1O)c1ccc2c(c1)OCCO2 | inconclusive: 2.06 µM [cytotoxic, partial curve, poor fit] | 
Cc1ccc2cc(CN(c3ccccc3)S(=O)(=O)c3ccccc3)c(=O)[nH]c2c1 |  | inactive: -6.87%
CN1C(=O)/C(=C\C(=O)c2cccs2)c2ccccc21 | active: 10.3 µM | 
C=CCN(Cc1ccc(OC)c(OC)c1)C(=O)c1cc2cc(F)ccc2[nH]1 | inconclusive: 29.1 µM [cytotoxic, single point] | 
COc1cc(CN2C[C@@H](CO)O[C@@H](n3cnc4c(NCc5ccco5)ncnc43)C2)cc(OC)c1OC | inconclusive: 10.3 µM [rising, partial curve] | 
C/C(N)=C(/C#N)C(=O)COC(=O)c1cc2c(s1)CCCC2 | inconclusive: 16.4 µM [cytotoxic, partial curve] | 
CCOC(=O)c1[nH]c2ccc(Br)cc2c1NC(=O)CCN1CCCC(C)(C)C1 |  | inactive: -11.9%
CCN(CC)S(=O)(=O)c1ccc(C)c(C)c1 |  | inactive: 6.19%
CCc1ccccc1NC(=O)CCN1C(=O)c2ccccc2C1=O |  | inconclusive: 31.3%
CCCNC(=O)c1ccccc1NC(=O)c1ccccc1N(C)S(=O)(=O)c1ccccc1 |  | inactive: -2.19%
CCN(CC)c1ccc(/C=N/NC(=O)c2ccco2)cc1 | inconclusive: 4.11 µM [cytotoxic, full curve] | 
CCOC(=O)N(C)c1c(CC)nc2c(OCc3ccc(C(F)(F)F)cc3)cccn12 | inconclusive: 32.6 µM [cytotoxic, single point] | 
O=C(COc1ccccc1C(=O)c1cnn(-c2ccccc2)c1)Nc1ccccc1 | inconclusive: 29.1 µM [cytotoxic, single point] | 
COc1cc2c(cc1O)CC[C@@H]1[C@@H]2CC[C@]2(C)[C@@H](O)CC[C@@H]12 | inconclusive: 2.51 µM [cytotoxic, full curve] and inconclusive: 2.59 µM [cytotoxic, full curve] | 
CC1(C)C(C=C(Cl)Cl)C1C(=O)OCc1cccc(Oc2ccccc2)c1 (centres undefined) |  | inconclusive: 34.7%
O=C(CCN1CCc2ccccc21)c1ccc2c(c1)OCCO2 | inconclusive: 16.4 µM [cytotoxic, single point] | 
CCOC(=O)c1c(CN2CCN(CCO)CC2)n(C)c2cc(Br)c(OC)cc12 | inconclusive: 14.1 µM [cytotoxic, single point] | 
CCCc1nnc2c(N(C)S(=O)(=O)c3ccccc3)nc3ccccc3n12 |  | inactive: -0.482%

SMILES | Potency | activity, negative = less viability
O=c1nc(N/N=C/C=C/c2ccccc2)cn[nH]1 | inconclusive: 16.4 µM [rising, partial curve] | 
O=C(N/N=C/c1c(O)ccc2ccccc12)c1cccnc1 | inconclusive: 1.46 µM [cytotoxic, full curve] | 
O=C(c1ccc2nc(N3CCOCC3)sc2c1)N1CCC(Cc2ccccc2)CC1 | inconclusive: 29.1 µM [cytotoxic, single point] | 
Cn1ccnc1/C(=N\NC(=O)c1ccccc1)c1cccc([N+](=O)[O-])c1 |  | inactive: -14.6%
Cc1ccc(-n2nc(C)c(NC(=O)CCl)c2C)cc1C | inconclusive: 16.4 µM [cytotoxic, single point] | 
Cc1ccc(NC(=O)Nc2ccc3c(c2)OCO3)cc1F |  | inconclusive: -24.4% [cytotoxic]
COc1cc(NC(=O)CSc2nnc(-c3ccncc3)o2)cc(OC)c1OC |  | inactive: 5.03%
CC(C)C[C@H]1CNC(=S)N1C[C@H]1CCCN1C[C@H](Cc1ccc(O)cc1)N1C[C@H](Cc2ccc(O)cc2)N(CC2CCCCC2)C1=S | active: 20.6 µM | 
COc1cccc(OCC(O)CN2CCC(CN3C(=O)c4cccc5cccc(c45)C3=O)CC2)c1 (centres undefined) | active: 18.4 µM | 
O=C(NCCc1ccccn1)c1ccc(OC2CCN(CCc3ccccc3)CC2)cc1 |  | inactive: -0.755%
Cc1ccc(-c2nnn(CC(=O)Nc3ccccc3N3CCOCC3)n2)cc1 |  | inconclusive: -27.5% [cytotoxic]
Cc1ccc(-n2cccn2)c(CN2CCCC(C(=O)c3sccc3C)C2)c1 (centres undefined) | inconclusive: 32.6 µM [cytotoxic, single point] | 
O=C(Nc1nc2ccc(F)cc2s1)C1CCN(S(=O)(=O)c2cc([N+](=O)[O-])ccc2Cl)CC1 |  | inconclusive: -31.5% [cytotoxic]
c1ccc(-n2cnc3cc(NCc4ccco4)ccc32)cc1 | inconclusive: 18.4 µM [cytotoxic, single point] | 
C[n+]1cccc(C2C(C#N)=C(N)Oc3c2ccc2ccccc32)c1 (centres undefined) | active: 11.6 µM | 
O=S(=O)(c1ccc(F)cc1F)N1CCCN(c2ccc(C(F)(F)F)cn2)CC1 | inconclusive: 29.1 µM [rising, single point] | 
CC(=O)c1ccc(N2CCN(C(=O)Cn3cnc(S(=O)(=O)N4CCCCC4)c3)CC2)cc1 | inconclusive: 23.1 µM [rising, single point] | 
CCCCCc1ccc(OCCC[n+]2ccccc2)c(CCCCC)c1 | active: 3.66 µM | 
COc1ccc(CNc2nc3c(c(=O)n(Cc4ccc(Cl)cc4)c(=O)n3C)n2C)cc1 | inconclusive: 14.6 µM [cytotoxic, partial curve] | 
COc1cc(/C=C2\C(=O)ON=C2c2ccccc2)cc(OC)c1OC | inconclusive: 20.6 µM [cytotoxic, single point] | 
CCc1nnc(NC(=O)CCC(=O)Nc2ccc(OC)cc2OC)s1 |  | inconclusive: -3.22%
Cc1ccc(NC(=O)Nc2cccnc2)cc1NC(=O)Nc1cccnc1 | inconclusive: 29.1 µM [cytotoxic, single point] | 
Cn1c(N)c(C(=O)COC(=O)c2ccc([N+](=O)[O-])o2)c(=O)n(C)c1=O | inconclusive: 29.1 µM [cytotoxic, single point] | 

SMILES | Potency | activity, negative = less viability
Cc1cc(=O)n2nc(N3CCC(C(=O)Nc4c(F)c(F)c(F)c(F)c4F)CC3)sc2n1 | inconclusive: 23.1 µM [rising, single point] | 
CCCCN(C)CCNC(=O)c1cc(-c2cccnc2)nc2ccc(S(=O)(=O)N3CCC(C)CC3)cc12 | inconclusive: 8.2 µM [cytotoxic, partial curve] | 
Clc1ccccc1C1=CC(c2ccco2)n2ncnc2N1 (centres undefined) |  | inactive: -3.98%
COc1ccc(-n2nnnc2SCC(=O)Nc2nnn(C)n2)cc1 |  | inactive: 4.84%
O=C1NC(=Nc2ccccc2)S/C1=C\c1ccccc1 |  | inactive: 0.492%
Cc1ccc(-c2c[n+](Cc3cccc(Cl)c3)c3n2CCC3)cc1 | inconclusive: 8.2 µM [cytotoxic, partial curve] | 
CC(C)c1ccc(NC(=O)N2CCCC2C(=O)Nc2ccc(-n3cnnn3)cc2)cc1 (centres undefined) |  | inactive: -5.69%
COCCCNC(=O)c1cc(-c2cccnc2)nc2ccccc12 |  | inactive: 5.46%
C(=C\c1ccccc1)/CN1CCN(C(c2nnnn2C2CCCCC2)C2CC2)CC1 (centres undefined) | inconclusive: 25.9 µM [cytotoxic, single point] | 
Cn1nc(C(=O)NCCc2ccc(S(N)(=O)=O)cc2)c2c1-c1ccccc1S(=O)(=O)C2 |  | inactive: 4.2%
CCOC(=O)N/N=C/c1ccc(N(CC)CC)cc1O | inconclusive: 10.3 µM [cytotoxic, partial curve] | 
CCC(C)c1ccccc1OCC(=O)NN1C(=O)c2ccccc2C1=O (centres undefined) | inconclusive: 29.1 µM [cytotoxic, single point] | 
NC(=O)CSc1nc2c(c(=O)n1-c1ccccc1)C1(CCCCC1)Cc1ccccc1-2 | inconclusive: 29.1 µM [cytotoxic, single point] | 
CCOc1ccc2oc(C(=O)NCC(c3ccco3)N(C)C)c(C)c2c1 (centres undefined) |  | inactive: 0.482%
COc1ccc(N(CN2C(=O)c3ccccc3C2=O)C(=O)COc2ccc(Cl)cc2Cl)cc1 | inconclusive: 29.1 µM [rising, single point] | 
O=C(NC1=C(Nc2ccc(Cl)cc2)C(=O)c2ccccc2C1=O)c1ccccc1 | inconclusive: 20.6 µM [cytotoxic, partial curve] | 
CC(C)c1ccc(NC(=O)c2ccc(NS(C)(=O)=O)cc2)cc1 | inconclusive: 5.8 µM [cytotoxic, full curve, poor fit] | 
CC(C)C1C(=O)N(Cc2cn(CCC3OCCO3)nn2)CCS(=O)(=O)N1Cc1ccc(-c2ccc(Cl)cc2)cc1 (centres undefined) | active: 18.4 µM | 
Cn1cnc([N+](=O)[O-])c1S(=O)(=O)Nc1ccccc1 | active: 10.3 µM | 
N#CCCN(Cc1ccccc1)C(C(=O)NC1CCCCC1)c1cc2ccccc2o1 (centres undefined) |  | inactive: -24.6%
COc1ccc(C(=O)Nc2ccc3c(c2)OCO3)cc1OC | inconclusive: 35.5 µM [cytotoxic, single point] | 
Cn1c(-c2ccc(F)cc2)cnc1SCC(=O)N1CCCCC1 |  | inactive: 15.4%
Cc1ccc(-c2csc(NC(=O)c3ccc(F)cc3)c2C(=O)O)cc1 | inconclusive: 13 µM [cytotoxic, partial curve] | 
